The other results are listed elsewhere or left out. These are enrichments in a pooled selection; single values are uncertain. Scores sum up all selected molecules that hold the word; the word was not tested alone.
Assays:
Assay in all cases: 6-mer SELEX enrichment z-score vs GST control; IMP3 is the RNA-binding protein IGF2BP3; higher = more enriched by binding
IMP3 KH1-4 = conditions: construct: KH1-4 (164-579); SELEX round: R4
Experimental: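 SELEX-seq with GST-tagged IMP3 KH1-4 (Pro164-Lys579) and an N40 RNA pool, round 4. 6-mer z-score of sequence-tag enrichment normalised to the corresponding GST SELEX round; RNA k-mers written as DNA (T for U).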

IMP3 RRM1-2 = conditions: construct: RRM1-2 (1-163); SELEX round: R2
Experimental: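 SELEX-seq with GST-tagged IMP3 RRM1-2 (Met1-Asn163) and an N40 RNA pool, round 2. 6-mer enrichment z-score normalised to GST SELEX. RNA written as DNA (T = U).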

IMP3 full-length = IMP3 full-length (UniProt O00425); conditions: construct: FL IMP3 (1-579); SELEX round: R4
Experimental: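 SELEX-seq with GST-tagged full-length IMP3 and an N40 RNA pool, round 4. Each 6-mer is scored as an enrichment z-score of sequence tags containing it, normalised to the matching GST SELEX round. RNA written as DNA (T = U).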

IMP3 KH1-2 = conditions: construct: KH1-2 (164-376); SELEX round: R4
Experimental: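 SELEX-seq with GST-tagged IMP3 KH1-2 (Pro164-Phe376) and an N40 RNA pool, round 4 (stringent 300/600 mM KCl washes). 6-mer z-score of sequence-tag enrichment normalised to the corresponding GST SELEX round; RNA k-mers written as DNA (T for U).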

IMP3 KH3-4 = conditions: construct: KH3-4 (377-579); SELEX round: R4
Experimental: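 SELEX-seq with GST-tagged IMP3 KH3-4 (Pro377-Lys579) and an N40 RNA pool, round 4. 6-mer z-score of sequence-tag enrichment normalised to the corresponding GST SELEX round; RNA k-mers written as DNA (T for U).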

IMP3 KH3-4, sequence (chain, as listed by the source): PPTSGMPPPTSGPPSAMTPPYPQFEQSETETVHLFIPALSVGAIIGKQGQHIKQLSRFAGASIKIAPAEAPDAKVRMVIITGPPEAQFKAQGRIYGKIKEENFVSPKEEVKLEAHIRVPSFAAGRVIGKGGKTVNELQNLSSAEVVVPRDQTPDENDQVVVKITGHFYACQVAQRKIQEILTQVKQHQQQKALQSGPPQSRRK
IMP3 KH1-4, sequence (chain, as listed by the source): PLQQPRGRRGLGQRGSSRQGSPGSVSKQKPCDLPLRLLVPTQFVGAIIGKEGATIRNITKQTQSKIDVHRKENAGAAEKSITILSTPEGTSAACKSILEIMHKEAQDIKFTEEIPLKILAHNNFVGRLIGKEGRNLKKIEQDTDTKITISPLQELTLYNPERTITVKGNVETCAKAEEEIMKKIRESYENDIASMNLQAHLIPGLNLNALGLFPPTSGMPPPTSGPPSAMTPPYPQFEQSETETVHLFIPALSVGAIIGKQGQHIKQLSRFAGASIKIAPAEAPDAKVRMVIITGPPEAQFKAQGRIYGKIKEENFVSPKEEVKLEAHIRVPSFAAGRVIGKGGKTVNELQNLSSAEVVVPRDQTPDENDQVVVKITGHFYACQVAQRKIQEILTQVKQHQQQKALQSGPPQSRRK
UniProt O00425, sequence (O00425 whole entry): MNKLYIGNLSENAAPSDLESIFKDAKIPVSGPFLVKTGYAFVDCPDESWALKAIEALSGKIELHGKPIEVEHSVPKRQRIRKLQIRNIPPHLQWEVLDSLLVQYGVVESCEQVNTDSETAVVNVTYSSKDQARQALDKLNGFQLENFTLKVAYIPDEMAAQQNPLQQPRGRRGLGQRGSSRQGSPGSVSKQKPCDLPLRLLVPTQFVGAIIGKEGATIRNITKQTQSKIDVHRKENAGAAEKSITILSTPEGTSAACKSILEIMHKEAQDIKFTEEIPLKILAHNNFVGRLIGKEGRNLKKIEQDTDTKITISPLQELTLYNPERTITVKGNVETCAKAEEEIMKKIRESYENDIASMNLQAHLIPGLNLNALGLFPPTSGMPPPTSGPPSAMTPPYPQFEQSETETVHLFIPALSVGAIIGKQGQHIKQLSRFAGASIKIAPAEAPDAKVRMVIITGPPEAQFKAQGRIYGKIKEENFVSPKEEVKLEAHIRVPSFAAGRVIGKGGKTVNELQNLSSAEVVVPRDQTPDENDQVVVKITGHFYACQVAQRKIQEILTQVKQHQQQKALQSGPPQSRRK
IMP3 RRM1-2, sequence (chain, as listed by the source): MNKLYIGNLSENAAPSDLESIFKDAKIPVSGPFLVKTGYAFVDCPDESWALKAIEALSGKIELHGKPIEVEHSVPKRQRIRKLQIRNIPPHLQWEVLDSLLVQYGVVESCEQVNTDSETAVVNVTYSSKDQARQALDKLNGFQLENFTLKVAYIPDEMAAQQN
IMP3 KH1-2, sequence (chain, as listed by the source): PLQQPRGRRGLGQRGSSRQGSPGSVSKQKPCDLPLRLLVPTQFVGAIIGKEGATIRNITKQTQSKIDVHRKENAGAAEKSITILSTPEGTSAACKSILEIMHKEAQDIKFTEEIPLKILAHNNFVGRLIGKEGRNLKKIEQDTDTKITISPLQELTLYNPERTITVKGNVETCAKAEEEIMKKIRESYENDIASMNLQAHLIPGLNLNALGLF

Sequence | 6-mer SELEX enrichment z-score (IMP3 KH1-4) | 6-mer SELEX enrichment z-score (IMP3 RRM1-2) | 6-mer SELEX enrichment z-score (IMP3 full-length) | 6-mer SELEX enrichment z-score (IMP3 KH1-2) | 6-mer SELEX enrichment z-score (IMP3 KH3-4)
AACCGT | -0.875 | -0.988 | -0.777 | -0.664 | -1.15
ATTAAT | 1.96 | 0.023 | 0.385 | 1.74 | 2.93
TTAGCC | -0.02 | -0.133 | -0.269 | -0.007 | -0.09
AGCCTC | -0.893 | -0.183 | -0.227 | -0.814 | -1.01
TCGTGC | -0.631 | 0.307 | -0.105 | -0.579 | -0.498
TCCCCT | 0.097 | -0.22 | -0.462 | 0.084 | -0.512
CTACTA | 0.606 | 0.341 | -0.201 | 0.691 | 0.628
TAACAC | 1.41 | 0.793 | 0.66 | 1.84 | 1.51
AGCCAG | -0.153 | -0.321 | 0.15 | -0.201 | -0.387
TAAATA | 1.25 | -0.878 | -0.363 | 1.17 | 2.35
AGGGCC | -0.418 | -0.018 | 0.221 | -0.126 | -0.218
TGAGAG | -0.074 | -0.524 | -0.384 | -0.144 | 0.102
CTAAAG | -0.621 | -0.74 | -0.892 | -0.667 | -0.36
CGACCA | -0.821 | 0.188 | -0.48 | -0.75 | -1.35
CACCCT | -0.794 | -0.208 | -0.852 | -0.844 | -1.34
TTATTC | 1.11 | 0.407 | 0.37 | 1.04 | 1.16
TTACGG | 0.665 | -0.001 | 0.291 | 0.367 | 0.658
TCTTGG | -0.429 | 0.649 | 0.104 | -0.288 | -0.203
GGCATA | 1.31 | 0.435 | 1.64 | 0.71 | 1.33
AGGTTG | 0.075 | 0.246 | 0.015 | 0.074 | 0.201
